# Measured values as given in PMC4336329 (PLoS ONE, 2015).
# The whole screen tested about 310,000 compounds, of which about 2,200 (0.71%) showed an effect of 50% or more. The effect is printed as a negative number. The list shows a part of the results.
# Biological target: human ether-à-go-go-related gene (hERG) potassium channel (human, UniProt Q12809)
# Assay: primary screen, population patch clamp on CHO cells stably expressing hERG
# Chain of human ether-à-go-go-related gene (hERG) potassium channel (Q12809 whole entry, looked up): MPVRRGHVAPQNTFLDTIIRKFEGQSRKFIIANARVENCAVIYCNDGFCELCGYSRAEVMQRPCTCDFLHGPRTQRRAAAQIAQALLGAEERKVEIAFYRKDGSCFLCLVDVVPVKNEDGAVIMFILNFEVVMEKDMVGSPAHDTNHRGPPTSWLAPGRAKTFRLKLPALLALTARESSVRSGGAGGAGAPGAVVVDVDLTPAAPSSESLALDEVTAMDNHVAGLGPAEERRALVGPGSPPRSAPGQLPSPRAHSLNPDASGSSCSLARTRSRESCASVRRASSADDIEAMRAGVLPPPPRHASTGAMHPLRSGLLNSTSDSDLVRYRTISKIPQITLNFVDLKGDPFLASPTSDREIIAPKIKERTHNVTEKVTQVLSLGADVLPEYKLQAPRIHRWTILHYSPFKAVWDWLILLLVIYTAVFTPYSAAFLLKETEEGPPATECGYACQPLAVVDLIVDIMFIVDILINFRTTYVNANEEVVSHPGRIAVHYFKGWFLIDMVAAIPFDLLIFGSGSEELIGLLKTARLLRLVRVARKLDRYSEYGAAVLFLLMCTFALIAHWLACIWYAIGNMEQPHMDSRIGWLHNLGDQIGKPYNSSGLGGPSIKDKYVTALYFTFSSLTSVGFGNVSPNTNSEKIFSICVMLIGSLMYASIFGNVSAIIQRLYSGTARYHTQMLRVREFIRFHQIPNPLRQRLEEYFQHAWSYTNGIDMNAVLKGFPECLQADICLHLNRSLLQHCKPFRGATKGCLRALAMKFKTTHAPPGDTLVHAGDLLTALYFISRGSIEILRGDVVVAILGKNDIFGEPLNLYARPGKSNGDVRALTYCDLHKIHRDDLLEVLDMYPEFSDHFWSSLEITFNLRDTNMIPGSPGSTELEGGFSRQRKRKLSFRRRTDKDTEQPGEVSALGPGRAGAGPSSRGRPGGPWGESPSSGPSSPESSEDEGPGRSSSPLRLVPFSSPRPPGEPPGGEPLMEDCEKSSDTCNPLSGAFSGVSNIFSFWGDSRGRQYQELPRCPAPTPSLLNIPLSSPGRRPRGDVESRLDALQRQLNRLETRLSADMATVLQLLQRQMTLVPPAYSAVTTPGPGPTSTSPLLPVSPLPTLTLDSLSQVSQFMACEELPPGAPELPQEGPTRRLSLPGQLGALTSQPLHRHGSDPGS
row,SMILES,"hERG current change (%, negative = inhibition) at 1uM"
1,Cc1ccc(OCC(O)CNS(=O)(=O)c2ccccc2C(=O)N2CCCCC2)cc1 (stereo not shown),0.361%
2,Cc1ccc2oc(=O)cc(CN3CC(C)OC(C)C3)c2c1 (stereo not shown),15.5%
3,O=C1N(c2ccccc2C(F)(F)F)O[C@@]1(c1ccccc1)C1CCCCC1,2.93%
4,Cc1ccc(NC(=O)C[n+]2cc(-c3ccc(C)cc3)n3c2CCC3)cc1.[Cl-],-15%
5,Cn1c(COc2ccc([N+](=O)[O-])cc2)nnc1SCC(N)=O,4.02%
6,COc1ccc(CN2CCC(=O)N([C@H](CO)CC(C)C)CC2)cc1,-1.27%
7,CCOC(=O)C1CCC(CN(Cc2ccccc2C)S(=O)(=O)c2ccc([N+](=O)[O-])cc2)CC1 (stereo not shown),17.1%
8,O=C(CSc1ncnc2c1oc1ccccc12)Nc1ccc2c(c1)OCCO2,6.96%
9,CC1(C)NC(C(=O)O)Cc2c1[nH]c1ccccc21 (stereo not shown),8.54%
10,COc1ccc(C(=O)/C=C/Nc2ccc(S(=O)(=O)Nc3cc(OC)nc(OC)n3)cc2)c(OC)c1,11.1%
11,O=C(Nc1cccnc1)C1CCCN1S(=O)(=O)c1ccc(Cl)c(Cl)c1 (stereo not shown),-13%
12,COc1ccccc1CNC(=O)COc1cccnc1[N+](=O)[O-],16.1%
13,CC(=O)CC1(O)C(=O)N(Cc2ccccc2)c2ccccc21 (stereo not shown),2.2%
14,CCn1cc(C(=O)NCC2COc3ccccc3O2)c2cc(OC)c(OC)cc2c1=O (stereo not shown),2.44%
15,Cc1cc2cc(CN(Cc3cccs3)Cc3nnnn3CC3CCCO3)c(=O)[nH]c2cc1C (stereo not shown),1.6%
16,CCCc1cc(=O)oc2c(C)c(OCC(=O)N3CCC(C(=O)O)(c4ccccc4)CC3)ccc12,-0.478%
17,O=C(COc1coc(CN2CCN(c3ccccc3)CC2)cc1=O)NCC1CCCO1 (stereo not shown),11.2%
18,O=C(CSCc1ccc(Cl)cc1)NN=C1CCCC1,8.83%
19,CCOc1ccc(OCC)c(NC(=O)C2CCN(c3ncccn3)CC2)c1,-13.4%
20,CS(=O)(=O)N(CC(=O)N1CCOCC1)c1cc(C(F)(F)F)ccc1Cl,16.8%
21,CC(/C=C/c1ccccc1)=N\NC(=O)CSc1ccccn1,-1.91%
22,Cc1ccccc1CN1CCN(CC(=O)NCc2ccco2)C1=O,15.5%
23,Cc1cc(NC(=O)Nc2cc(Cl)sc2Cl)no1,10.3%
24,CC(C)NC(=O)COC(=O)c1ccccc1Oc1ccccc1,-2.8%
25,CCOc1ccc(C(C(=O)Nc2ccc(F)cc2)N(C(=O)Cn2nnc3ccccc32)C2CC2)cc1 (stereo not shown),-13%
26,N#CCCN1CCN(C(=S)c2ccc(-c3cc(Cl)ccc3Cl)o2)CC1,2.02%
27,CCC1CCc2sc(C(=O)NCC(c3ccccc3OC)N3CCCC3)cc2C1 (stereo not shown),4.93%
28,O=C(CCn1c(=S)oc2ccccc21)N1CCN(c2ccc(F)cc2)CC1,-4.22%

row,SMILES,"hERG current change (%, negative = inhibition) at 1uM"
1,Cc1ccccc1Cn1cc(CCC(=O)N2CCOCC2)c2ccccc21,8.97%
2,COC(=O)C1(C)NC(c2ccc(C)cc2)C2C(=O)N(c3ccc(F)cc3)C(=O)C21 (stereo not shown),5.81%
3,COC(=O)c1ccc(CNC(=O)COC(=O)c2cc(Cl)nc(Cl)c2)cc1,10%
4,O=C(C1CCN(C2CCN(Cc3ccc4cc(F)ccc4n3)CC2)CC1)N1CCCC1,-78.3%
5,COc1cccc(OCC(O)CN(CCO)Cc2ccccc2)c1.Cl (stereo not shown),4.38%
6,Clc1ccc2oc(-c3cccnc3)nc2c1,1.68%
7,Cc1ccc(/C=N/NC(=O)c2nnn(-c3nonc3N)c2CN(C)C2CCCCC2)cc1,1.9%
8,COc1cccc(-c2c(C(=O)N/N=C/c3ccco3)nnn2-c2nonc2N)c1,19.3%
9,CSc1sc(-c2ccnc(SCC(=O)C(C)(C)C)n2)c2c1C(=O)CC(C)(C)C2,14.6%
10,O=C(Nc1nccs1)c1ccc(Br)cc1,7.92%
11,CCn1cc(CNC(=O)c2cc(COc3ccc(F)cc3F)on2)cn1,13.2%
12,Cc1ccc(NS(=O)(=O)c2cc(C(=O)Nc3cccc(N(C)S(C)(=O)=O)c3)ccc2C)c(C)c1,10.2%
13,C#CCOC(=O)Nc1cnccc1C(F)(F)F,5.2%
14,O=C(O)C(Cc1ccc(F)cc1)c1ccccc1 (stereo not shown),16.2%
15,CCn1cc(C(=O)NCC(=O)OC)c2cc(OC)c(OC)cc2c1=O,3.86%
16,Cc1ccc(CS(=O)(=O)Cc2ccc(C(=O)NC3CC3)o2)cc1,15.7%
17,O=C1c2ccccc2C(=O)N1CCCOCc1c[nH]c(=O)[nH]c1=O,10.9%
18,CCCCN1C2=C(C(=O)CCC2)C(c2ccc(Cl)c(Cl)c2)C2=C1c1ccccc1C2=O (stereo not shown),20.5%
19,O=C(CCS(=O)(=O)Cc1ccccc1)Nc1ccc2c(c1)OCCO2,6.57%
20,COc1ccc([C@H]2C=C3CN(C(=O)OC(C)(C)C)S(=O)(=O)[C@H]3C[C@H]2OC(=O)c2cccs2)cc1,4.12%
21,Cc1ccc(Nc2nnns2)cc1,15.9%
22,Cc1ccc(NC(=O)C(OC(=O)c2cnc(C)cn2)c2ccccc2)c([N+](=O)[O-])c1 (stereo not shown),17.2%
23,COc1cccc(OC)c1C(=O)N=c1sc2cc(S(C)(=O)=O)ccc2n1C,6.79%
24,CC(=O)c1ccc(O)c(CC=C(C)C)c1,7.34%
25,O=C(Nc1cccc(C(F)(F)F)c1)OCCN1CCN(Cc2ccccc2)CCC1=O,-7.18%
26,CN(Cc1cccs1)C(=O)C1CCN(S(=O)(=O)c2ccccc2)CC1,-6.13%
27,CCOC(=O)c1cc(C)n(-c2c(C)n(C)n(-c3ccccc3)c2=O)c1C,18.1%
